One assay concerns HSkMC. The assay can be described thus: cytotoxicity call (relative viability < 0.9). Conditions: 10 µM.
A further assay relates to HepG2. The assay can be described thus: cytotoxicity call (relative viability < 0.9). Conditions: 10 µM.
For a further assay, the system named is S. aureus RN4220. The assay is described as follows: growth inhibition call (relative growth <= 0.2). Conditions: 50 µM.

This is one part of the list.

Regarding `C=C[C@@H]1C[C@]1(NC(=O)[C@@H]1C[C@@H]2CN1C(=O)[C@H](C(C)(C)C)NC(=O)O[C@@H]1C[C@H]1CCCCCc1nc3ccc(OC)cc3nc1O2)C(=O)NS(=O)(=O)C1CC1`, the cytotoxicity call in the assay with HSkMC and in the assay with HepG2 was “inactive” in each case. In addition, in the assay with S. aureus RN4220, the growth inhibition call was “inactive”.
Consider `C[C@@H]1CCCCO[C@@H](CN(C)C(=O)Cc2ccccc2)[C@@H](C)CN([C@H](C)CO)C(=O)c2cc(NC(=O)CCCCCC(=O)Nc3ccccc3N)ccc2O1`, for which the cytotoxicity call in the assay with HSkMC and with HepG2 was “inactive” throughout. In addition, the growth inhibition call in the assay with S. aureus RN4220 is “inactive”.
Consider `CC(C)(CO)[C@@H](O)C(=O)NCCC(=O)O`, for which the cytotoxicity call in the assay with HSkMC and with HepG2 was “inactive” throughout. The growth inhibition call in the assay on S. aureus RN4220 was “inactive”.
`C[C@@H]1CN([C@@H](C)CO)C(=O)c2cc(NC(=O)c3ccccc3)ccc2O[C@@H](C)CCCCO[C@H]1CN(C)S(=O)(=O)c1ccccc1`: the cytotoxicity call with HSkMC and with HepG2 was “inactive” each time. In addition, the growth inhibition call with S. aureus RN4220 was “inactive”.
Turning to `C[C@@H]1CN([C@H](C)CO)C(=O)c2c(c3ccccc3n2C)-c2ccccc2CO[C@@H]1CN(C)C(=O)Nc1cccc(Cl)c1Cl`, the cytotoxicity call in the assay on HSkMC was “active”. Further, in the assay with HepG2, the cytotoxicity call is “inactive”. Besides, in the assay with S. aureus RN4220, the growth inhibition call is “inactive”.
For `C[C@H]1CN([C@@H](C)CO)C(=O)Cc2cc(NC(=O)C3CCCCC3)ccc2O[C@@H]1CN(C)Cc1ccc(Cl)c(Cl)c1`, the cytotoxicity call in the assay on HSkMC and in the assay with HepG2 was “inactive” in each case. The growth inhibition call in the assay with S. aureus RN4220 is “inactive”.
In the case of `COc1ccc(CN(C)C[C@H]2Oc3ccc(NC(=O)Cn4cnnn4)cc3C(=O)N([C@@H](C)CO)C[C@@H]2C)cc1`, the cytotoxicity call in the assay with HSkMC and with HepG2 was “inactive” throughout. Also, the growth inhibition call in the assay on S. aureus RN4220 is “inactive”.
As for `C[C@H]1CN([C@@H](C)CO)C(=O)c2c(c3ccccc3n2C)-c2ccccc2CO[C@H]1CN(C)Cc1cccc2c1OCCCO2`, the cytotoxicity call in the assay on HSkMC and in the assay on HepG2 was “inactive” in each case. Besides, in the assay with S. aureus RN4220, the growth inhibition call is “inactive”.
Consider `O=C(Nn1cnnc1)c1ccccc1`, for which the cytotoxicity call in the assay with HSkMC and in the assay with HepG2 was “inactive” in each case. Also, the growth inhibition call in the assay on S. aureus RN4220 is “inactive”.
For `O=C(CCCCCNC(=O)OCc1ccc(CO[C@@H]2C[C@H](C3CCCCC3)C=C(C(=O)N3CCCCCCC3)O2)cc1)NO`, the cytotoxicity call in the assay with HSkMC and in the assay on HepG2 was “inactive” in each case. In the assay with S. aureus RN4220, the growth inhibition call is “inactive”.
As to `Cc1noc(C)c1S(=O)(=O)Nc1ccc2c(c1)C(=O)N([C@H](C)CO)C[C@@H](C)[C@@H](CN(C)CC1CC1)O2`, the cytotoxicity call in the assay with HSkMC and with HepG2 was “inactive” in each case. For the same molecule, in the assay on S. aureus RN4220, the growth inhibition call was “inactive”.
Take `C[C@@H]1CN([C@H](C)CO)C(=O)c2cccc(NS(=O)(=O)c3ccccc3)c2O[C@@H]1CN(C)S(C)(=O)=O`: the cytotoxicity call in the assay with HSkMC and with HepG2 was “inactive” throughout. In addition, the growth inhibition call in the assay on S. aureus RN4220 was “inactive”.
Take `Cc1noc(C)c1S(=O)(=O)Nc1ccc2c(c1)CC(=O)N([C@@H](C)CO)C[C@@H](C)[C@H](CN(C)S(=O)(=O)c1c(C)noc1C)O2`: the cytotoxicity call with HSkMC and in the assay on HepG2 was “inactive” in each case. Moreover, in the assay with S. aureus RN4220, the growth inhibition call was “inactive”.
With `Cc1cc(C(=O)Nc2cccc3c2O[C@H](CN(C)C(=O)Nc2ccc4c(c2)OCO4)[C@H](C)CN([C@H](C)CO)C3=O)n(C)n1`, the cytotoxicity call with HSkMC and with HepG2 was “inactive” in each case. Also, the growth inhibition call in the assay with S. aureus RN4220 was “inactive”.
In the case of `C[C@H]1CCCCO[C@@H](CN(C)C(=O)Nc2ccc(F)cc2)[C@@H](C)CN([C@@H](C)CO)C(=O)c2cc(NC(=O)C3CCCCC3)ccc2O1`, the cytotoxicity call in the assay on HSkMC and in the assay with HepG2 was “inactive” each time. In addition, the growth inhibition call in the assay with S. aureus RN4220 is “inactive”.
Turning to `C[C@@H]1CO[C@]2(O[C@H]3C[C@H]4[C@H]5C[C@H](O[C@H]6O[C@@H](C)[C@@H](O)[C@@H](O[C@@H]7O[C@@H](C)[C@H](O)[C@@H](O)[C@H]7O)[C@@H]6O)[C@H]6C[C@@H](O)CC[C@]6(C)[C@@H]5CC[C@]4(C)[C@H]3[C@@H]2C)[C@@H](O)C1`, the cytotoxicity call in the assay on HSkMC and in the assay on HepG2 was “inactive” in each case. Also, the growth inhibition call with S. aureus RN4220 is “inactive”.
`Cc1noc(C)c1S(=O)(=O)Nc1ccc2c(c1)C(=O)N([C@H](C)CO)C[C@H](C)[C@@H](CN(C)C)OCCCC[C@@H](C)O2`: the cytotoxicity call with HSkMC and in the assay on HepG2 was “inactive” each time. The growth inhibition call in the assay with S. aureus RN4220 was “inactive”.
As for `Cc1noc(C)c1NC(=O)N[C@H]1CC[C@@H](CC(=O)NCCCN(C)C)O[C@@H]1CO`, the cytotoxicity call in the assay with HSkMC and in the assay with HepG2 was “inactive” each time. For the same molecule, in the assay on S. aureus RN4220, the growth inhibition call is “inactive”.
On to `C=CCNC(=O)[C@H]1[C@@H]2C(=O)O[C@@H](c3ccccc3)[C@@H](c3ccccc3)N2[C@@H](c2ccccc2OCCO)[C@]12C(=O)N(C(=O)OCCOC)c1ccc(C#Cc3ccc(OC)cc3)cc12`, for which the cytotoxicity call in the assay on HSkMC and with HepG2 was “inactive” each time. For the same molecule, in the assay with S. aureus RN4220, the growth inhibition call was “inactive”.
For `COc1ccc(S(=O)(=O)Nc2ccc3c(c2)C(=O)N([C@@H](C)CO)C[C@@H](C)[C@H](CN(C)C(=O)NC2CCCCC2)OCCCC[C@H](C)O3)cc1`, the cytotoxicity call with HSkMC and in the assay with HepG2 was “inactive” each time. Also, the growth inhibition call in the assay with S. aureus RN4220 was “inactive”.
As for `Cc1ccc(/C=N/c2ccccc2Sc2c(C)n[nH]c2C)cc1`, the cytotoxicity call in the assay with HSkMC and in the assay on HepG2 was “inactive” throughout. Besides, the growth inhibition call with S. aureus RN4220 was “inactive”.
As to `C[C@@H]1CCCCO[C@@H](CN(C)C(=O)Nc2ccc3c(c2)OCO3)[C@@H](C)CN([C@H](C)CO)C(=O)c2cc(NC(=O)CCC(F)(F)F)ccc2O1`, the cytotoxicity call in the assay on HSkMC (human skeletal muscle cells) and in the assay on HepG2 was “inactive” each time. In the assay with S. aureus RN4220, the growth inhibition call is “inactive”.
For the molecule `Cc1ccc(C)c(S(N)(=O)=O)c1`, the cytotoxicity call in the assay with HSkMC and with HepG2 was “inactive” in each case. Also, the growth inhibition call in the assay with S. aureus RN4220 was “inactive”.
As for `CCC(=O)O[C@H]1[C@@H]2CC3=C4CC(=O)O[C@@H](c5ccoc5)[C@]4(C)CC[C@@H]3[C@@](C)(C2=O)[C@@H](CC(=O)OC)C1(C)C`, the cytotoxicity call with HSkMC and in the assay with HepG2 was “inactive” throughout. In the assay on S. aureus RN4220, the growth inhibition call was “inactive”.
As to `COC(=O)c1c2oc(c1C(=O)OC)C(=O)N[C@H](Cc1ccccc1)Cn1cc(nn1)[C@H](Cc1ccccc1)NC(=O)N[C@H](CO)CC2`, the cytotoxicity call in the assay with HSkMC and in the assay on HepG2 was “inactive” throughout. Besides, the growth inhibition call in the assay on S. aureus RN4220 was “inactive”.
For the molecule `C[C@H]1CN([C@@H](C)CO)C(=O)c2cccc(NS(=O)(=O)c3cn(C)cn3)c2O[C@H]1CN(C)C(=O)Nc1ccc(F)cc1`, the cytotoxicity call in the assay with HSkMC and in the assay on HepG2 was “inactive” each time. In the assay with S. aureus RN4220, the growth inhibition call was “inactive”.

(Values after the antibiotic and cytotoxicity screens of Wong et al. (2023).)
